Hit rate of the full screen: of about 310,000 compounds, about 14,000 (4.5%) showed an effect of 50% or more. The effect is printed as a negative number. This is one part of the list.
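Also: peak tail current of the secondary pulse compared with the same well before compound.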

Sequence of human ether-à-go-go-related gene (hERG) potassium channel (Q12809 whole entry, looked up): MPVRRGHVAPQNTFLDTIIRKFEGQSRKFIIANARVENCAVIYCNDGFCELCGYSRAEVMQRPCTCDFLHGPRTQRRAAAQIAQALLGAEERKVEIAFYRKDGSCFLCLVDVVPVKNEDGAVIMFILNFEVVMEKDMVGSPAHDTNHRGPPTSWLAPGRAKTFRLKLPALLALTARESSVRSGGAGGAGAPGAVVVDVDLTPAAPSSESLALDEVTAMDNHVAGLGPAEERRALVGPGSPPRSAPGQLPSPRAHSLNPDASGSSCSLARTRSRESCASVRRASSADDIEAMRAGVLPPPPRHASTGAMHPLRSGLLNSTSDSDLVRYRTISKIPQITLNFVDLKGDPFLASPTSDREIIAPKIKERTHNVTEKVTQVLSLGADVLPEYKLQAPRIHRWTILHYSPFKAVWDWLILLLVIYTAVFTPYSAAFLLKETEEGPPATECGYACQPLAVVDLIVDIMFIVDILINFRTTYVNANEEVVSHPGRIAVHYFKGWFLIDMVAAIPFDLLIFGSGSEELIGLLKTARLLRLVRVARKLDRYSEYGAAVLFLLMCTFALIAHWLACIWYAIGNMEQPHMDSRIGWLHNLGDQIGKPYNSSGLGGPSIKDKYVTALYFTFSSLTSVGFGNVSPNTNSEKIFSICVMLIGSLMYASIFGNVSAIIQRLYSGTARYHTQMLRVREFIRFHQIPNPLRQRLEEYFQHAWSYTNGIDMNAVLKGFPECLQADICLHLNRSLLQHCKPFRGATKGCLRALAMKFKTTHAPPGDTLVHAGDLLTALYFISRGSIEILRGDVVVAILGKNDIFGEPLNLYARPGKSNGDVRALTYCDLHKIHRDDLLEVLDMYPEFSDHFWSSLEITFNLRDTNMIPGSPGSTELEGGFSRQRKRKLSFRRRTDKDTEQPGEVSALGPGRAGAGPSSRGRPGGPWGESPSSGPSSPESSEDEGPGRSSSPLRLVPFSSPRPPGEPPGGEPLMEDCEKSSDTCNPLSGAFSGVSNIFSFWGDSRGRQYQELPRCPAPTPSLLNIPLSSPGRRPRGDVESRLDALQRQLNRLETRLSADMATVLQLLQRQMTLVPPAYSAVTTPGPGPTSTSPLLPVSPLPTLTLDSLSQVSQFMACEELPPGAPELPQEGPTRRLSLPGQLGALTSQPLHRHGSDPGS

This assay has as its target human ether-à-go-go-related gene (hERG) potassium channel (human, UniProt Q12809). Put plainly: primary screen, population patch clamp on CHO cells stably expressing hERG.
Regarding `O=C(CSc1nc2ccccc2c(=O)n1NC(=O)Cc1ccccc1)NCc1ccccc1`, the “hERG current change (%, negative = inhibition) at 10uM” value is given as -4.05%.

Regarding `Cc1ccc(-c2nc3ncccc3o2)cc1NC(=O)c1cc2ccccc2o1`, the “hERG current change (%, negative = inhibition) at 10uM” value turned out to be 0.219%.

On to `O=S(=O)(N1CCOCC1)N1CCOCC1`, for which the “hERG current change (%, negative = inhibition) at 10uM” value turned out to be 24.6%. With `CN1CCN(C(=O)c2cc(-c3ccco3)on2)CC1` the figure was 19.7%. The result for `CC(=C/c1ccccc1)/C=N/Nc1nc(N2CCCCC2)nc(N2CCCCC2)n1` reads 4.75%; that for `Cc1ccc(S(=O)(=O)CCC(=O)N(Cc2nnc(-c3ccc(Cl)cc3)o2)C2CC2)cc1`, -12.7%; that for `COc1ccc(NC(=O)C(NC(=O)c2ccc(=O)[nH]c2)c2ccc(OC)cc2)cc1` (centres unmarked), -1.51%. With `COc1cc(C(CC(=O)Nc2ccc(C)cn2)N2Cc3ccccc3C2=O)cc(OC)c1OC` (centres unmarked) the figure was -1.38%; with `O=C(Nc1ccc(Cl)cc1)N1CCOC12CCCCC2`, 2.95%; with `O=C(N/N=C\C=C\c1ccc2c(c1)OCO2)C1COc2ccccc2O1` (centres unmarked), -26.5%.

Take `CCCCn1c(=O)n(C)c(=O)c2c3c(sc21)COC(C)(C)C3`: the “hERG current change (%, negative = inhibition) at 10uM” value was -11.1%. With `O=C(N/N=C\c1cn(-c2ccccc2)nc1-c1ccccc1)c1ccc(Br)o1` the figure was -0.855%; with `C=CCn1c(CCNC(=O)c2ccccc2F)nnc1SCC(=O)Nc1nc(C)cs1`, -5.2%; with `COC(=O)C1CC(=O)N(CCc2c[nH]c3ccccc23)C1` (centres unmarked), -2.54%. With `CC(C)(C)C1CCc2c(sc(NC(=O)CSc3nnc(-c4ccccc4)o3)c2C#N)C1` (centres unmarked), the “hERG current change (%, negative = inhibition) at 10uM” value came out at 16.2%.

Take `O=C(c1ccc(Cl)cc1Cl)N1CCC(C(=O)N2CCOCC2)CC1`: the “hERG current change (%, negative = inhibition) at 10uM” value was found to be 9.99%.

Regarding `O=C(CN1CCOCC1)Nc1ccc(Oc2ccc(NC(=O)CN3CCOCC3)cc2)cc1`, the “hERG current change (%, negative = inhibition) at 10uM” value worked out at 5.59%. The result for `O=C(O)c1ccc(C2CCCCC2)cn1` reads 7.42%; that for `CC(=O)NCCNC(=O)c1ccc(Cn2c(=O)[nH]c3ccsc3c2=O)cc1`, 22.3%. With `Cc1ccccc1SCC(=O)Nc1cccc(C#N)c1` the figure was -10.7%; with `Cc1ccc(S(=O)(=O)NCC(=O)NCC(=O)NC(C)c2ccccc2Br)cc1C` (centres unmarked), -8.12%; with `C=CCC(=O)NC1CC(C)(C)Cc2c1cnn2-c1ccccc1C` (centres unmarked), 4.35%. The result for `COC1=CCC2([N+](=O)[O-])CN(CCO)CC1([N+](=O)[O-])C2` (centres unmarked) reads 7.75%.

As to `CCCn1c(=O)c2c(nc3n2CCS3)n(C)c1=O`, the “hERG current change (%, negative = inhibition) at 10uM” value turned out to be 16.5%. As for `CC(=NCCCn1ccnc1)c1c(O)n(C)c(=O)n(C)c1=O`, the “hERG current change (%, negative = inhibition) at 10uM” value was -9.42%. With `CCN(CC)c1ccc(C2C(C(=O)Nc3ccccn3)=C(C)NC3=C2C(=O)CC(C)(C)C3)cc1` (centres unmarked) the figure was -31.7%; with `Cn1cc(Cl)c(C(=O)Nc2nc3ccc([N+](=O)[O-])cc3s2)n1`, 29.3%.

As to `CCOC(=O)c1c(NC(=O)c2cccs2)sc(C(=O)N2CCOCC2)c1C`, the “hERG current change (%, negative = inhibition) at 10uM” value is -55.5%. With `O=C(COc1cccc(C(F)(F)F)c1)Nc1ccc(S(=O)(=O)N2CCCC2)cc1` the figure was 5.48%; with `Cc1cc(C)nc(N2CCCC(C(=O)NCc3cccc(C(F)(F)F)c3)C2)n1` (centres unmarked), 16.7%. For `O=C(CSC1CS(=O)(=O)c2cc([N+](=O)[O-])ccc21)NNC(=O)c1ccccc1` (centres unmarked), the “hERG current change (%, negative = inhibition) at 10uM” value is reported as -20.7%.

As for `CCn1c(=O)c(C(=O)Nc2ccccn2)c(O)c2ccccc21`, the “hERG current change (%, negative = inhibition) at 10uM” value is 5.38%.

With `CN(CC(=O)Nc1ccc(Cl)cc1)C(=O)CCc1nc2sc3c(c2c(=O)[nH]1)CCCC3`, the “hERG current change (%, negative = inhibition) at 10uM” value is on record as -22.1%. In the case of `Cc1ccccc1OCc1nnc(SCC(=O)O)n1-c1ccccc1`, the “hERG current change (%, negative = inhibition) at 10uM” value was found to be 14.4%.

With `O=C(COc1ccccc1)Nc1nnc(-c2ccccc2Cl)o1`, the “hERG current change (%, negative = inhibition) at 10uM” value is on record as 8.56%. With `O=C(O)COc1ccc(/C=N/O)cc1Br` the figure was 8.08%; with `Cc1cccc(-n2c(Cn3nc(C)c([N+](=O)[O-])c3C)n[nH]c2=S)c1`, 10.3%; with `CC(C)COc1cccc(C(=O)NNC(=O)C2COc3ccccc3O2)c1` (centres unmarked), -4.24%. With `O=C(CN1CC(=O)Nc2ccccc21)Nc1ccc(F)c(F)c1` the figure was 13.9%; with `N#Cc1cc2sc3nnc(-c4ccncc4)n3c2cc1C#N`, -54%; with `Cc1cccc(-c2nnc(SCC#N)n2Cc2ccccc2)c1`, -66.6%.

Regarding `COc1ccc(OCC(=O)N/N=C/c2ccncc2)cc1`, the “hERG current change (%, negative = inhibition) at 10uM” value came out at 17.9%. With `CC1(C)c2ssc(=S)c2-c2ccccc2N1C(=O)CSC1=NCCS1` the figure was 11.7%. `COCCCN1CC23C=CC(O2)C(C(=O)OC)C3C1=O` (centres unmarked): the “hERG current change (%, negative = inhibition) at 10uM” value is listed as -5.4%. With `CC(C)CC(COCc1cccc(C(F)(F)F)c1)N1CCN(C(=O)c2cccc(C(F)(F)F)c2)CCC1=O` (centres unmarked) the figure was -12%; with `O=C(/C=C/c1cccc([N+](=O)[O-])c1)N1CCN(C(=O)c2ccco2)CC1`, -64.8%; with `CN1CC(c2ccccc2Cl)C2(COc3ccccc3C2=O)C12C(=O)Nc1ccccc12` (centres unmarked), -15.1%. With `Cc1nc(CCNC(=O)CC2C(=O)NCCN2CC(C)C)nc2c1CCC2` (centres unmarked) the figure was 16.8%; with `COc1cc(C2NC(=O)NC(C)=C2C(C)=O)ccc1O` (centres unmarked), 7.7%. Turning to `CCOc1ccc(N(CC(=O)NCc2ccccc2)S(=O)(=O)c2ccc(C)cc2)cc1`, the “hERG current change (%, negative = inhibition) at 10uM” value came to 4.04%. With `Cc1cccc(NS(=O)(=O)c2ccc(C)c(C(N)=O)c2)c1` the figure was 13.1%. With `CC1CCCCN1C(=O)C1CCN(c2nc(-c3ccccc3)nc3c2CCC3)CC1` (centres unmarked) the figure was -42.4%; with `CCc1ccc(-c2cc(C(=O)NCCCn3ccnc3)c3ccccc3n2)s1`, -73.6%. The result for `Cc1ccc(NC(=O)c2ccc(CNc3c(N4CCC(C)CC4)c(=O)c3=O)cc2)cc1` reads 22.8%. On to `Cc1ccc(CC(SCc2ccccc2)C(=O)O)cc1C` (centres unmarked), for which the “hERG current change (%, negative = inhibition) at 10uM” value was 8.52%. The result for `CCN(CC(=O)Nc1cc(Cl)ccc1C)C(=O)CN1C(=O)NC2(CCCC2)C1=O` reads 8.3%.

These data come from article PMC4336329 (PLoS ONE, 2015).
